# The list shows a part of the results.
# Target: T1, OsWOX13 (Oryza sativa, UniProt Q5QMM3 1-267)
# T1 sequence: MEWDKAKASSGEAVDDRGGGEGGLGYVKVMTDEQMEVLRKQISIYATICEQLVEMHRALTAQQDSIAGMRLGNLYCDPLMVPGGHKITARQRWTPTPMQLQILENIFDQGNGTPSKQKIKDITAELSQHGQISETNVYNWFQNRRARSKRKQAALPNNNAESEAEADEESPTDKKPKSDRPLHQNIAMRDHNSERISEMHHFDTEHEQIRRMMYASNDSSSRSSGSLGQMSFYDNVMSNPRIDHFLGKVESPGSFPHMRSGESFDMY
# Assay: protein-binding microarray (RPBM); PBS, 2% BSA, 51.3 ng/ul salmon testes DNA, 50 uM zinc acetate, 200 nM TF, 25 C, 1 h; high values mean tight binding
# Settings: protein: recombinant; tags: N-terminal polyhistidine and DsRed monomer fusion (pET32a); label: CyDye5-dUTP incorporated in the synthesized complementary strand; 3' TTTTT single-stranded linker to array surface; dsDNA, one strand shown
# In short: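 Binding signal is reported as fluorescence intensity per feature (arbitrary units) from an Axon 4000B scanner. Incubation used 200 nM of each Ni–NTA-purified, N-terminally polyhistidine- and DsRed-fused transcription factor from E. coli BL21-CodonPlus on a double-stranded custom Agilent array for 1 h at 25 °C, with 50 µM zinc acetate in the buffer, followed by washing.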
row,Sequence,binding signal
1,TTGATTTCTAATCGAAATATGATATTTAATTTAAAGCCATCGGAGTCACCTAGTGCAG,5440 fluorescence intensity (a.u.)
2,GTTGGTGAGATTGAAATTAAAGGAGACAGAGATGTAGACACGGAGTCACCTAGTGCAG,18700 fluorescence intensity (a.u.)
3,TTTCAATCTACGTATTAATAGAATCTATAGTATTCATATACGGAGTCACCTAGTGCAG,9500 fluorescence intensity (a.u.)
4,TAATTAATTGAAAATAAAATTGTACTACACGAGATGGCCCCGGAGTCACCTAGTGCAG,47300 fluorescence intensity (a.u.)
5,ACCTCATATAATTGTAGTTCAACTGTGACTTAGGATTGTTCGGAGTCACCTAGTGCAG,5370 fluorescence intensity (a.u.)
6,ATTAAAATTAGAATTTCATCCATTACCTTCTCATATTTGGCGGAGTCACCTAGTGCAG,5880 fluorescence intensity (a.u.)
7,ACTGCTGCCGATTGACTGCTACGAGTAGCTCGCACCTGGCCGGAGTCACCTAGTGCAG,7450 fluorescence intensity (a.u.)
8,TTGTTTGATTATAAACAGTGCCAACTGCTCTATTCCACTACGGAGTCACCTAGTGCAG,11000 fluorescence intensity (a.u.)
9,ACTTGATTATAGTCCTCCTTTCGTCTCTATAGCGATTGATCGGAGTCACCTAGTGCAG,38600 fluorescence intensity (a.u.)
10,GGTCCTAATTGACAAATCCACAGAAGTAGTACTCCAGGAGCGGAGTCACCTAGTGCAG,53000 fluorescence intensity (a.u.)
11,TTTGATTTAACATTATACACAGCTATAGTGCATATGAACACGGAGTCACCTAGTGCAG,34200 fluorescence intensity (a.u.)
12,CACATAAGATTGGCTACATGGGCATCGAGAAATGTAAATACGGAGTCACCTAGTGCAG,3510 fluorescence intensity (a.u.)
13,CTTAATCTATTATTATATGATATGCATAAAATTAGTGACACGGAGTCACCTAGTGCAG,9640 fluorescence intensity (a.u.)
14,TTATATGGGATTGATATGGAAAACCATAGAATACAAAGAGCGGAGTCACCTAGTGCAG,9760 fluorescence intensity (a.u.)
15,AACTAGATTATTTTATCTGCTATCACAAATATCCACAATTCGGAGTCACCTAGTGCAG,4520 fluorescence intensity (a.u.)
16,GAAATGTGTTTTAAATTGAATATTTTGTTATTTGTTGACGCGGAGTCACCTAGTGCAG,9420 fluorescence intensity (a.u.)
17,CAGTAAATTTAATCGTCACCGTACAATTATCGTATTTCGCCGGAGTCACCTAGTGCAG,24900 fluorescence intensity (a.u.)
18,CTTAATTAACTAATTAATGTAATTAAATTACTCCTGACAACGGAGTCACCTAGTGCAG,39900 fluorescence intensity (a.u.)
19,AATAATTAATAAAAGAGCGCGGGCCCACCACCCAACCCACCGGAGTCACCTAGTGCAG,15700 fluorescence intensity (a.u.)
20,GTCGACTGAAAAGGATTGACATTCCAAGCCTTTTCAGATTCGGAGTCACCTAGTGCAG,3580 fluorescence intensity (a.u.)
21,AGTAATTATTAATTCTTTTCGTATCATTTATATATTGTTACGGAGTCACCTAGTGCAG,12500 fluorescence intensity (a.u.)

row,Sequence,binding signal
1,TTTGATTGATGGCCATAAGTTGCCACACTTTGCCACACTTCGGAGTCACCTAGTGCAG,53800 fluorescence intensity (a.u.)
2,ATATGTTAATGAATTTAAACATATATATGTGTGTTTAGATCGGAGTCACCTAGTGCAG,3540 fluorescence intensity (a.u.)
3,GGAAAATGGAACCATAATGAATCCAGATTGGATGTGTGGGCGGAGTCACCTAGTGCAG,7440 fluorescence intensity (a.u.)
4,TATGATCATCTTGATGGAAAAGACGAACTCTGGTTTGATTCGGAGTCACCTAGTGCAG,5600 fluorescence intensity (a.u.)
5,TTTTAAACTAATACTTAATTAATCATATATTAATTAGGTACGGAGTCACCTAGTGCAG,19200 fluorescence intensity (a.u.)
6,CGTTGACTTTTCTAAACATGTTTGACCGTTCGTCTTATTCCGGAGTCACCTAGTGCAG,4780 fluorescence intensity (a.u.)
7,ATCCTCTTAATCTCTCATTGATTTAGGGTTTCGTGAGAATCGGAGTCACCTAGTGCAG,4030 fluorescence intensity (a.u.)
8,TTCACATGTAAATTTTAAATTTTGTATTGGATTTGGTCTTCGGAGTCACCTAGTGCAG,5140 fluorescence intensity (a.u.)
9,GCAAATTGACTTATAATATGAAATGGAAGGACTAACATCTCGGAGTCACCTAGTGCAG,23500 fluorescence intensity (a.u.)
10,AAAAGGATATGATTTGAAATGGCATTAAAGTGAATAGGCCCGGAGTCACCTAGTGCAG,4540 fluorescence intensity (a.u.)
11,TTGTCCTTGATTGCTATCTATCTTATATTCGAAGGAAGTTCGGAGTCACCTAGTGCAG,22300 fluorescence intensity (a.u.)
12,TGTACTGATGATGCAATTTACTTTATATTTATCAAGCATTCGGAGTCACCTAGTGCAG,5610 fluorescence intensity (a.u.)
13,GTCGTAGATTGACGGGAAGAGGAACCGGTGGTTGTGATGCCGGAGTCACCTAGTGCAG,41400 fluorescence intensity (a.u.)
14,TTGCTATTATTTGATTGATTTTAGGTCTCACAACGCCATCCGGAGTCACCTAGTGCAG,50000 fluorescence intensity (a.u.)
15,CTCATCAGTTGACCCCTGTCAATTTAGTGTGACTATGTGACGGAGTCACCTAGTGCAG,3380 fluorescence intensity (a.u.)
16,TATTAATTGAGAAAATTACAATAAAATGTAAGTCGTCAAACGGAGTCACCTAGTGCAG,38600 fluorescence intensity (a.u.)
17,GAAAATTAAACGGAACCTATATTTCCACCCAAATATAGGTCGGAGTCACCTAGTGCAG,5130 fluorescence intensity (a.u.)
18,CATGATTTCTCTCTCTGGCTTTTGAATTTGAACTAGTCCACGGAGTCACCTAGTGCAG,15900 fluorescence intensity (a.u.)
19,GTTGCCTCTTAATTTATGAGTGAATGATGTGGATAAATTTCGGAGTCACCTAGTGCAG,9080 fluorescence intensity (a.u.)
20,CCCAAATCAGCCCACAGTCAAACCGCGTCGTCTTCCTCCTCGGAGTCACCTAGTGCAG,4096 fluorescence intensity (a.u.)
21,TCAAATTACACTGATTTTAATAGTTGAGGGTCGAGATATCCGGAGTCACCTAGTGCAG,21900 fluorescence intensity (a.u.)

row,Sequence,binding signal
1,CATTAACAATTTACTTGGTTGACCACCTGAAAATCCTAGGCGGAGTCACCTAGTGCAG,3860 fluorescence intensity (a.u.)
2,GTGGGTGGTTGGTGGTGGTGGTGGTGGTGGTGATCTTTGGCGGAGTCACCTAGTGCAG,6950 fluorescence intensity (a.u.)
3,TCATGCAGTAATTAATCAGTGACAGTGAACCTTGTTAGTACGGAGTCACCTAGTGCAG,17400 fluorescence intensity (a.u.)
4,CTATAAATGGGCTGTAATGAATATATGTGTTTATTTGGAACGGAGTCACCTAGTGCAG,4810 fluorescence intensity (a.u.)
5,CGGCACACTGATTGGCTACCAACTGATTTGGCGGTGTTGGCGGAGTCACCTAGTGCAG,44200 fluorescence intensity (a.u.)
6,AGTCTGATTGGACATGGGATCAGGTATGTAACTTTACTTGCGGAGTCACCTAGTGCAG,50200 fluorescence intensity (a.u.)
7,CTATAATTGTGAAATTATCACACTAGGCTGTTTTCAGACACGGAGTCACCTAGTGCAG,23300 fluorescence intensity (a.u.)
8,GTGTGTATGACAGGTTGATGTGATAGAAAAGGACTAAAGTCGGAGTCACCTAGTGCAG,5220 fluorescence intensity (a.u.)
9,TTTATAATTTATATTTCAAGATGAATGTAGCATTATTCCACGGAGTCACCTAGTGCAG,11700 fluorescence intensity (a.u.)
10,TTTACTAGATTTATATTTGAAATACGTTTTACGAGCAAATCGGAGTCACCTAGTGCAG,5380 fluorescence intensity (a.u.)
11,CGCAATCATTACACAGACGTGGGGACTATACTATACTATACGGAGTCACCTAGTGCAG,6250 fluorescence intensity (a.u.)
12,TCTAATTTATAGTGCCATATTATATTTAGCATGAATTTAGCGGAGTCACCTAGTGCAG,11400 fluorescence intensity (a.u.)
13,AATCTTTCAATCTTCTTCACTCTTCAGTTTCTTTCATTCTCGGAGTCACCTAGTGCAG,4290 fluorescence intensity (a.u.)
14,AGTCTGATTTGCCTCCTCTCCCTCCTCCCCACTTCAAGATCGGAGTCACCTAGTGCAG,11700 fluorescence intensity (a.u.)
15,TGATTAATTAAGTATTAGCTAATTATTTTCATAAATGGATCGGAGTCACCTAGTGCAG,20300 fluorescence intensity (a.u.)
16,AGTAGACTGATCAGACTGATGTAGTATCATCCTCCTGGCCCGGAGTCACCTAGTGCAG,20000 fluorescence intensity (a.u.)
17,TCGTAGATTAACGTGCAAATGAAAATAGAGCTGATAGCCGCGGAGTCACCTAGTGCAG,6900 fluorescence intensity (a.u.)
18,AAGAAATCTTCAGTACTTAAATTGATTTATCCTCCGAACTCGGAGTCACCTAGTGCAG,5940 fluorescence intensity (a.u.)
19,ATCAAATTTACTTGCATGACAACGAAGAGAACCCGTTATTCGGAGTCACCTAGTGCAG,5420 fluorescence intensity (a.u.)
20,GTTATAAATGCCGTAAATTAAGTCAAGTTAACGTATCTGTCGGAGTCACCTAGTGCAG,6620 fluorescence intensity (a.u.)
21,TCCAAAATTAACTCTATTCATCCCTAACTAACGTCTCTGTCGGAGTCACCTAGTGCAG,6120 fluorescence intensity (a.u.)

row,Sequence,binding signal
1,TCTTGACTATAAATAATTACCACAATAATATACTACTTCACGGAGTCACCTAGTGCAG,9140 fluorescence intensity (a.u.)
2,CGGAGAGAGATTTGATAATTTAACACTCCTTTTCAATTATCGGAGTCACCTAGTGCAG,6640 fluorescence intensity (a.u.)
3,AAGTAACACATTGCAATCAATTCAGCTCTACATCCACAATCGGAGTCACCTAGTGCAG,9060 fluorescence intensity (a.u.)
4,GAAATAGACATACATTATGTCCAGATTCAAACTCAGGATTCGGAGTCACCTAGTGCAG,8340 fluorescence intensity (a.u.)
5,ATTTGATTGACGAGGTATAGTAAAATGCGTCAACTTATGTCGGAGTCACCTAGTGCAG,63200 fluorescence intensity (a.u.)
6,AACTTAGATTTAAATTTAGAAATTTATGATATAATCTTTTCGGAGTCACCTAGTGCAG,19900 fluorescence intensity (a.u.)
7,TCAAAATCTAGCTGTTTCAATCTATCCATCTTGCCTAGTGCGGAGTCACCTAGTGCAG,3350 fluorescence intensity (a.u.)
8,GAGGCGATTCACCAATCACCATCGCGGCATGCATGATCCCCGGAGTCACCTAGTGCAG,5120 fluorescence intensity (a.u.)
9,GTAGATGATTTACTTAATGTGTTCATAAGGTGGATGGCTTCGGAGTCACCTAGTGCAG,32500 fluorescence intensity (a.u.)
10,TGTGGTTCAGTAATTGGTAATGGTATGTCTAGAGAAAATACGGAGTCACCTAGTGCAG,4400 fluorescence intensity (a.u.)
11,TTTCCTCTATAATTTCACTTGATTAAGTTGATTTAACTTTCGGAGTCACCTAGTGCAG,10200 fluorescence intensity (a.u.)
12,TGTCACTTAATTAAAAGTTCCCAAACCGTTTGATTTGTGTCGGAGTCACCTAGTGCAG,16900 fluorescence intensity (a.u.)
13,AGTCAAGAATTATGAAAATTGATGGAGTAACACCGCTACTCGGAGTCACCTAGTGCAG,11900 fluorescence intensity (a.u.)
14,CTTGGTTGTTTAATTTGTTTGTTTGCTTTAGCTCTGCTCCCGGAGTCACCTAGTGCAG,4010 fluorescence intensity (a.u.)
15,ATCCAAGTAATTAGCGCTTATACTGCGATTTGGCTAAACCCGGAGTCACCTAGTGCAG,13000 fluorescence intensity (a.u.)
16,CCCAATCAAGTAGGAGAAATTTGTGTTCGAGGGCCAAATGCGGAGTCACCTAGTGCAG,4000 fluorescence intensity (a.u.)
17,TTTGATGACAAACCCTAATTTGGAAGGGATGAAACAACTACGGAGTCACCTAGTGCAG,9480 fluorescence intensity (a.u.)
18,AACCGATAATTGAGCCTTGCAATATCCATTAAAGGGAACCCGGAGTCACCTAGTGCAG,18000 fluorescence intensity (a.u.)
19,TCATCGTGGTATTAATTATTTAATAATTATAAATATATTTCGGAGTCACCTAGTGCAG,10200 fluorescence intensity (a.u.)
20,GTGGATTTATCTTTAAATTATTTCAAAATAATGAATCACACGGAGTCACCTAGTGCAG,3740 fluorescence intensity (a.u.)
21,TCAAACTTACATAATTTACATGCCATGTTATCCAATATGCCGGAGTCACCTAGTGCAG,11100 fluorescence intensity (a.u.)
